In the supplement of paper PMC9446081:
Out of some 39,000 compounds screened, about 220 (0.56%) showed activity. The list shows a part of the results.

What follows are molecules tested on Escherichia coli K-12 BW25113 (assay: relative growth (OD600 normalised to plate interquartile mean) (fraction); higher = less growth inhibition, active = 0.2 or less). Settings: 50 µM; LB; incubation time: overnight (16-24 h).
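Further: static incubation at 37 °C against the wild-type strain, values averaged over two biological replicates.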

| Structure (SMILES) | relative growth |
| --- | --- |
| C[C@@H]1CN([C@H](C)CO)C(=O)c2c(c3ccccc3n2C)-c2ccccc2CO[C@H]1CN(C)C(=O)Nc1ccccc1C(F)(F)F | inactive: 0.961 |
| C[C@@H]1CN([C@@H](C)CO)C(=O)Cc2cc(NC(=O)CCCN(C)C)ccc2O[C@H]1CN(C)Cc1ccncc1 | inactive: 1.01 |
| C[C@H](CO)N1C[C@H](C)[C@H](CN(C)Cc2ccc(C(=O)Nc3ccccc3N)cc2)Oc2ccc(NS(=O)(=O)c3cn(C)cn3)cc2C1=O | inactive: 1.01 |
| Cc1noc(C)c1S(=O)(=O)Nc1ccc2c(c1)CC(=O)N([C@H](C)CO)C[C@H](C)[C@H](CN(C)CC1CC1)O2 | inactive: 0.979 |
| C[C@@H]1CN([C@H](C)CO)C(=O)c2cccc(NS(C)(=O)=O)c2O[C@@H]1CN(C)S(=O)(=O)c1cn(C)cn1 | inactive: 0.961 |
| C[Si](C)(C)O[Si](C)(C)O[Si](C)(C)C | inactive: 0.894 |
| C[C@@H]1CCCCO[C@H](CN(C)Cc2ccc(Cl)c(Cl)c2)[C@H](C)CN([C@H](C)CO)C(=O)c2cc(NC(=O)CCC(F)(F)F)ccc2O1 | inactive: 1.02 |
| Cc1noc(C)c1S(=O)(=O)N(C)C[C@H]1Oc2ccc(NC(=O)C3CCCCC3)cc2CC(=O)N([C@@H](C)CO)C[C@@H]1C | inactive: 1 |
| COc1ccc(NC(=O)Nc2cccc3c2O[C@H](CN(C)CC2CCCCC2)[C@H](C)CN([C@H](C)CO)C3=O)cc1 | inactive: 0.994 |
| C[C@@H]1CCCCO[C@H](CN(C)CC2CCCCC2)[C@@H](C)CN([C@H](C)CO)C(=O)c2cc(NC(=O)Nc3cccc4ccccc34)ccc2O1 | inactive: 1 |
| C[C@H](CO)N1C[C@H](C)[C@@H](CN(C)S(=O)(=O)c2ccc(C#N)cc2)OCc2cnnn2CCCC1=O | inactive: 1.01 |
| C[C@@H]1CN([C@@H](C)CO)C(=O)c2cccc(NS(=O)(=O)c3ccc(F)cc3)c2O[C@@H]1CN(C)Cc1ccc(-c2ccccc2)cc1 | inactive: 0.978 |
| CCCN(C)C[C@@H]1OCCCC[C@H](C)Oc2ccc(NC(=O)Nc3ccc(F)cc3)cc2C(=O)N([C@@H](C)CO)C[C@@H]1C | inactive: 0.94 |
| C[C@H](CO)N1C[C@H](C)[C@@H](CN(C)S(=O)(=O)c2ccccc2)Oc2ccc(NC(=O)Cc3ccccc3)cc2CC1=O | inactive: 1.01 |
| C[C@@H]1CCCCO[C@H](CN(C)S(=O)(=O)c2ccc(Cl)cc2)[C@H](C)CN([C@@H](C)CO)C(=O)c2cc(NC(=O)c3ccncc3)ccc2O1 | inactive: 0.997 |
| C[C@H]1CCCCO[C@H](CN(C)Cc2ccc(C(F)(F)F)cc2)[C@@H](C)CN([C@@H](C)CO)C(=O)c2cc(NS(=O)(=O)c3ccccc3)ccc2O1 | inactive: 0.999 |
| C[C@H](CO)N1C[C@H](C)[C@@H](CN(C)Cc2ccc(C(=O)O)cc2)Oc2c(NC(=O)c3ccc(-c4nccs4)cc3)cccc2C1=O | inactive: 0.985 |
| C[C@@H]1CN([C@@H](C)CO)C(=O)c2cccc(NS(=O)(=O)c3cn(C)cn3)c2O[C@H]1CN(C)CC1CCCCC1 | inactive: 0.985 |
| Cc1cc(C(=O)Nc2cccc3c2O[C@@H](CN(C)Cc2ccc(C(=O)O)cc2)[C@H](C)CN([C@@H](C)CO)C3=O)n(C)n1 | inactive: 1.02 |

| Structure (SMILES) | relative growth |
| --- | --- |
| C[C@H]1CCCCO[C@H](CN(C)Cc2ccc3c(c2)OCO3)[C@@H](C)CN([C@@H](C)CO)C(=O)c2cc(NS(=O)(=O)c3ccc(F)cc3)ccc2O1 | inactive: 0.989 |
| CN(CCOc1ccc(CC2SC(=O)NC2=O)cc1)c1ccccn1.O=C(O)C=CC(=O)O (stereo not drawn) | inactive: 0.921 |
| COCC#Cc1ccc([C@H]2[C@@H](CO)N3C(=O)CN(C(=O)c4ccncc4)C[C@H]23)cc1 | inactive: 1.01 |
| C[C@H]1CN([C@@H](C)CO)C(=O)c2cccc(NS(=O)(=O)c3ccc(F)cc3)c2O[C@H]1CN(C)S(=O)(=O)c1cn(C)cn1 | inactive: 0.987 |
| O=C1CCC(=O)N1CNc1ccccn1 | inactive: 0.999 |
| C[C@H]1CN([C@@H](C)CO)C(=O)Cc2cc(NC(=O)CCCN(C)C)ccc2O[C@@H]1CN(C)C(=O)Nc1ccc2c(c1)OCO2 | inactive: 0.981 |
| CC[C@@H]1CN(C(=O)OC)N1 | inactive: 1.02 |
| O=C(C[C@H]1C[C@H]2c3cc(NS(=O)(=O)c4ccc(F)cc4)ccc3O[C@H]2[C@@H](CO)O1)NCc1ccccc1F | inactive: 0.978 |
| CCCC#Cc1ccc2c(c1)O[C@H](CN(C)S(=O)(=O)c1cccc(F)c1)[C@H](C)CN([C@@H](C)CO)S2(=O)=O | inactive: 1.01 |
| COc1ccc(S(=O)(=O)N(C)C[C@H]2Oc3ccc(NS(=O)(=O)c4ccc(F)cc4)cc3CC(=O)N([C@H](C)CO)C[C@H]2C)cc1 | inactive: 1 |
| NCC[C@@H]1CC[C@@H](NC(=O)C2CCC2)[C@@H](CO)O1 | inactive: 0.969 |
| Cc1ccc(S(=O)(=O)N(C)C[C@H]2OCCCC[C@@H](C)Oc3ccc(NS(=O)(=O)c4ccc(Cl)cc4)cc3C(=O)N([C@@H](C)CO)C[C@H]2C)cc1 | inactive: 1.02 |
| CC(=O)OC[C@H]1O[C@H](n2ccc(=O)[nH]c2=O)[C@@H](OC(C)=O)[C@@H]1OC(C)=O | inactive: 1.03 |
| Cn1cnc(S(=O)(=O)N2C[C@@H](O)COC[C@@H]3O[C@@H](CC(=O)N4CCN(c5ccccc5)CC4)CC[C@H]32)c1 | inactive: 0.861 |
| C[C@H]1CN([C@@H](C)CO)C(=O)CCCn2cc(nn2)CO[C@@H]1CN(C)S(=O)(=O)c1ccccc1C#N | inactive: 0.986 |
| CN1C(=O)c2cc(NC(=O)c3ccc(F)cc3)ccc2OC[C@@H]2O[C@@H](CC(=O)N3CCOCC3)CC[C@H]21 | inactive: 1.06 |
| Cc1ccc(S(=O)(=O)Nc2ccc3c(c2)C(=O)N([C@H](C)CO)C[C@@H](C)[C@@H](CN(C)Cc2ccc(Cl)c(Cl)c2)O3)cc1 | inactive: 0.99 |
| COc1ccc2c3c([nH]c2c1)[C@H](CO)N(CC1CCCC1)C[C@]13CCN(CC1)C(=O)Nc1cccc(c1)F | inactive: 1 |
| C=CCC[C@@H](Cc1ccc(F)cc1)C(=O)O[C@H](CNC(=O)[C@H](CC=C)CC(=O)N(CCO)Cc1ccccc1)c1ccccc1 | inactive: 1.08 |
